Laboratory results: a collection of fitness landscapes (doi:10.1016/j.celrep.2020.107928)
Whole data set: some 81,000 sequences, median “one-hybrid fitness for binding NBS DNA” near -0.1, cut for the highest 2% near 0.36. The list shows a part of the results.

B1: Caulobacter ParB omega fusion; a variant is named by its letters at X, in order, B8GW30 (parent)
chain: MESVVVGEPGMSEGRRGLGRGLSALLGEVDAAPAQAPGEQLGGSREAPIEILQRNPDQPRRTFREEDLEDLSNSIREKGVLQPILVRPSPDTAGEYQIVAGERAWRAAQRAGLKTVPIMVRELDDLAVLEIGIIENVQRADLNVLEEALSYKVLMEKFERTQENIAQTIGKSXSHVANXMRLLXLPDEVQSYLVSGELTAXHARAIAAAADPVALAKQIIEGGLSVRETEALARKAPNLSAGKSKGGRPPRVKDTDTQALESDLSSVLGLDVSIDHRGSTGTLTITYATLEQLDDLCNRLTRGI

Variants of: B1
Assay: one-hybrid fitness for binding NBS DNA (the Noc-binding site; scaled: cognate 1, non-cognate 0); higher = stronger binding
Details: with NBS DNA site
Procedure, shortened: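 Values were rescaled so that cognate is 1 and non-cognate is 0. Each is a fitness, the log change in a variant's read ratio to wild type from Illumina reads of plasmids before and after selection, with three replicate libraries pooled and variants under 10 reads dropped. Selection of the Caulobacter ParB libraries, four specificity codons randomised, used E. coli USO with a HIS3 reporter, site 19 bp from the promoter, on M9-minus-histidine with 0.1 mM IPTG and 5 mM 3-AT for 48 hours at 37°C.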

VPTT and MCHW cannot be ordered by “one-hybrid fitness for binding NBS DNA” value: ≤ 0.2 for the first, ≤ 0.2 for the second.

WPAT and VHAA cannot be ordered by “one-hybrid fitness for binding NBS DNA” value: ≤ 0.2 for the first, ≤ 0.2 for the second.

YMDW and PHIN cannot be ordered by “one-hybrid fitness for binding NBS DNA” value: ≤ 0.2 for the first, ≤ 0.2 for the second.

PISP and VGLV cannot be ordered by “one-hybrid fitness for binding NBS DNA” value: ≤ 0.2 for the first, ≤ 0.2 for the second.

LIES and GQHG cannot be ordered by “one-hybrid fitness for binding NBS DNA” value: ≤ 0.2 for the first, ≤ 0.2 for the second.

GNIR and TVIT cannot be ordered by “one-hybrid fitness for binding NBS DNA” value: ≤ 0.2 for the first, ≤ 0.2 for the second.

DCQT and YLWG cannot be ordered by “one-hybrid fitness for binding NBS DNA” value: ≤ 0.2 for the first, ≤ 0.2 for the second.

WFPH and DPYV cannot be ordered by “one-hybrid fitness for binding NBS DNA” value: ≤ 0.2 for the first, ≤ 0.2 for the second.

LTQP and QNCK cannot be ordered by “one-hybrid fitness for binding NBS DNA” value: ≤ 0.2 for the first, ≤ 0.2 for the second.

EMPW and HFDP cannot be ordered by “one-hybrid fitness for binding NBS DNA” value: ≤ 0.2 for the first, ≤ 0.2 for the second.

DEYT and FTWR cannot be ordered by “one-hybrid fitness for binding NBS DNA” value: ≤ 0.2 for the first, ≤ 0.2 for the second.

RWCC and NRRG cannot be ordered by “one-hybrid fitness for binding NBS DNA” value: ≤ 0.2 for the first, ≤ 0.2 for the second.

VWGS and AFYG cannot be ordered by “one-hybrid fitness for binding NBS DNA” value: ≤ 0.2 for the first, ≤ 0.2 for the second.

RKSM and PTDG cannot be ordered by “one-hybrid fitness for binding NBS DNA” value: ≤ 0.2 for the first, ≤ 0.2 for the second.

LNVV and GRKG cannot be ordered by “one-hybrid fitness for binding NBS DNA” value: ≤ 0.2 for the first, ≤ 0.2 for the second.

TLLW and HKFR cannot be ordered by “one-hybrid fitness for binding NBS DNA” value: ≤ 0.2 for the first, ≤ 0.2 for the second.

KNLL and HGMT cannot be ordered by “one-hybrid fitness for binding NBS DNA” value: ≤ 0.2 for the first, ≤ 0.2 for the second.

WTQT and NASN cannot be ordered by “one-hybrid fitness for binding NBS DNA” value: ≤ 0.2 for the first, ≤ 0.2 for the second.

QSDA and VFQM cannot be ordered by “one-hybrid fitness for binding NBS DNA” value: ≤ 0.2 for the first, ≤ 0.2 for the second.

NTKV and LPLT cannot be ordered by “one-hybrid fitness for binding NBS DNA” value: ≤ 0.2 for the first, ≤ 0.2 for the second.

AGWW and ECVR cannot be ordered by “one-hybrid fitness for binding NBS DNA” value: ≤ 0.2 for the first, ≤ 0.2 for the second.

SADG and CQCG cannot be ordered by “one-hybrid fitness for binding NBS DNA” value: ≤ 0.2 for the first, ≤ 0.2 for the second.

SLNG and DQWE cannot be ordered by “one-hybrid fitness for binding NBS DNA” value: ≤ 0.2 for the first, ≤ 0.2 for the second.

SMDS and EELS cannot be ordered by “one-hybrid fitness for binding NBS DNA” value: ≤ 0.2 for the first, ≤ 0.2 for the second.

QFCV and IIVS cannot be ordered by “one-hybrid fitness for binding NBS DNA” value: ≤ 0.2 for the first, ≤ 0.2 for the second.

RMMI and WWDI cannot be ordered by “one-hybrid fitness for binding NBS DNA” value: ≤ 0.2 for the first, ≤ 0.2 for the second.

KTQT and RIYV cannot be ordered by “one-hybrid fitness for binding NBS DNA” value: ≤ 0.2 for the first, ≤ 0.2 for the second.

PFKM and WKPE cannot be ordered by “one-hybrid fitness for binding NBS DNA” value: ≤ 0.2 for the first, ≤ 0.2 for the second.

LYGR and DVTL cannot be ordered by “one-hybrid fitness for binding NBS DNA” value: ≤ 0.2 for the first, ≤ 0.2 for the second.

QSHW and GSQW cannot be ordered by “one-hybrid fitness for binding NBS DNA” value: ≤ 0.2 for the first, ≤ 0.2 for the second.

QSLK and RNSM cannot be ordered by “one-hybrid fitness for binding NBS DNA” value: ≤ 0.2 for the first, ≤ 0.2 for the second.

VAPL and GHAT cannot be ordered by “one-hybrid fitness for binding NBS DNA” value: ≤ 0.2 for the first, ≤ 0.2 for the second.

ALSW and NASM cannot be ordered by “one-hybrid fitness for binding NBS DNA” value: ≤ 0.2 for the first, ≤ 0.2 for the second.

KWWS and MYRS cannot be ordered by “one-hybrid fitness for binding NBS DNA” value: ≤ 0.2 for the first, ≤ 0.2 for the second.

CTDN and HRSR cannot be ordered by “one-hybrid fitness for binding NBS DNA” value: ≤ 0.2 for the first, ≤ 0.2 for the second.

CEVS and AWTN cannot be ordered by “one-hybrid fitness for binding NBS DNA” value: ≤ 0.2 for the first, ≤ 0.2 for the second.

GRNK and MCAC cannot be ordered by “one-hybrid fitness for binding NBS DNA” value: ≤ 0.2 for the first, ≤ 0.2 for the second.

AGEV and SIAF cannot be ordered by “one-hybrid fitness for binding NBS DNA” value: ≤ 0.2 for the first, ≤ 0.2 for the second.

EVQT and TKVC cannot be ordered by “one-hybrid fitness for binding NBS DNA” value: ≤ 0.2 for the first, ≤ 0.2 for the second.

PPDE and ATIC cannot be ordered by “one-hybrid fitness for binding NBS DNA” value: ≤ 0.2 for the first, ≤ 0.2 for the second.

ITPY and VASL cannot be ordered by “one-hybrid fitness for binding NBS DNA” value: ≤ 0.2 for the first, ≤ 0.2 for the second.

ARNW and KDFR cannot be ordered by “one-hybrid fitness for binding NBS DNA” value: ≤ 0.2 for the first, ≤ 0.2 for the second.

LGID and RSGG cannot be ordered by “one-hybrid fitness for binding NBS DNA” value: ≤ 0.2 for the first, ≤ 0.2 for the second.

MVTG and ITQC cannot be ordered by “one-hybrid fitness for binding NBS DNA” value: ≤ 0.2 for the first, ≤ 0.2 for the second.

SLWF and SNAS cannot be ordered by “one-hybrid fitness for binding NBS DNA” value: ≤ 0.2 for the first, ≤ 0.2 for the second.

NCLE and DESK cannot be ordered by “one-hybrid fitness for binding NBS DNA” value: ≤ 0.2 for the first, ≤ 0.2 for the second.

SAPF and QKIH cannot be ordered by “one-hybrid fitness for binding NBS DNA” value: ≤ 0.2 for the first, ≤ 0.2 for the second.

IMDT and DMFC cannot be ordered by “one-hybrid fitness for binding NBS DNA” value: ≤ 0.2 for the first, ≤ 0.2 for the second.

DSHN and CRHY cannot be ordered by “one-hybrid fitness for binding NBS DNA” value: ≤ 0.2 for the first, ≤ 0.2 for the second.

ANTP and FHFR cannot be ordered by “one-hybrid fitness for binding NBS DNA” value: ≤ 0.2 for the first, ≤ 0.2 for the second.

KTQD and HDPS cannot be ordered by “one-hybrid fitness for binding NBS DNA” value: ≤ 0.2 for the first, ≤ 0.2 for the second.

QHTN and AWRY cannot be ordered by “one-hybrid fitness for binding NBS DNA” value: ≤ 0.2 for the first, ≤ 0.2 for the second.

RWNG and HRQV cannot be ordered by “one-hybrid fitness for binding NBS DNA” value: ≤ 0.2 for the first, ≤ 0.2 for the second.

GVDL and GCAP cannot be ordered by “one-hybrid fitness for binding NBS DNA” value: ≤ 0.2 for the first, ≤ 0.2 for the second.

KIYR and TVMS cannot be ordered by “one-hybrid fitness for binding NBS DNA” value: ≤ 0.2 for the first, ≤ 0.2 for the second.

SGET and YTKG cannot be ordered by “one-hybrid fitness for binding NBS DNA” value: ≤ 0.2 for the first, ≤ 0.2 for the second.

QTCV and MPMT cannot be ordered by “one-hybrid fitness for binding NBS DNA” value: ≤ 0.2 for the first, ≤ 0.2 for the second.

GWPD and YWTR cannot be ordered by “one-hybrid fitness for binding NBS DNA” value: ≤ 0.2 for the first, ≤ 0.2 for the second.

ENLH and FMTE cannot be ordered by “one-hybrid fitness for binding NBS DNA” value: ≤ 0.2 for the first, ≤ 0.2 for the second.

IRDC and VRIA cannot be ordered by “one-hybrid fitness for binding NBS DNA” value: ≤ 0.2 for the first, ≤ 0.2 for the second.

LCLK and GTTM cannot be ordered by “one-hybrid fitness for binding NBS DNA” value: ≤ 0.2 for the first, ≤ 0.2 for the second.

KGCR and WRPC cannot be ordered by “one-hybrid fitness for binding NBS DNA” value: ≤ 0.2 for the first, ≤ 0.2 for the second.

RTGE and RVTY cannot be ordered by “one-hybrid fitness for binding NBS DNA” value: ≤ 0.2 for the first, ≤ 0.2 for the second.

THVK and DCSR cannot be ordered by “one-hybrid fitness for binding NBS DNA” value: ≤ 0.2 for the first, ≤ 0.2 for the second.

LTLP and WRVR cannot be ordered by “one-hybrid fitness for binding NBS DNA” value: ≤ 0.2 for the first, ≤ 0.2 for the second.

WRNI and VSAH cannot be ordered by “one-hybrid fitness for binding NBS DNA” value: ≤ 0.2 for the first, ≤ 0.2 for the second.

WIPP and TYMW cannot be ordered by “one-hybrid fitness for binding NBS DNA” value: ≤ 0.2 for the first, ≤ 0.2 for the second.

RKLM and WRDV cannot be ordered by “one-hybrid fitness for binding NBS DNA” value: ≤ 0.2 for the first, ≤ 0.2 for the second.

SGVK and VAEC cannot be ordered by “one-hybrid fitness for binding NBS DNA” value: ≤ 0.2 for the first, ≤ 0.2 for the second.

MSPA and IMLR cannot be ordered by “one-hybrid fitness for binding NBS DNA” value: ≤ 0.2 for the first, ≤ 0.2 for the second.

NYPW and PELL cannot be ordered by “one-hybrid fitness for binding NBS DNA” value: ≤ 0.2 for the first, ≤ 0.2 for the second.

First: NPYC
Second: RSIR
The “one-hybrid fitness for binding NBS DNA” value of the first is lower: ≤ 0.2 for the first, 0.207 for the second.

YTVT and RLSH cannot be ordered by “one-hybrid fitness for binding NBS DNA” value: ≤ 0.2 for the first, ≤ 0.2 for the second.

First: RDGT
Second: QYAS
The “one-hybrid fitness for binding NBS DNA” value of the first is lower: ≤ 0.2 for the first, 0.327 for the second.

Going from QRRD to AHVF, the “one-hybrid fitness for binding NBS DNA” value falls from 0.356 to ≤ 0.2.

MRRA and TGPW cannot be ordered by “one-hybrid fitness for binding NBS DNA” value: ≤ 0.2 for the first, ≤ 0.2 for the second.

For LTRA, the “one-hybrid fitness for binding NBS DNA” value was ≤ 0.2.
